Among all 310,000 compounds or so, about 2,200 (0.71%) showed an effect of 50% or more. The effect is printed as a negative number. This is one part of the list.

Sequence of human ether-à-go-go-related gene (hERG) potassium channel (Q12809 whole entry, looked up): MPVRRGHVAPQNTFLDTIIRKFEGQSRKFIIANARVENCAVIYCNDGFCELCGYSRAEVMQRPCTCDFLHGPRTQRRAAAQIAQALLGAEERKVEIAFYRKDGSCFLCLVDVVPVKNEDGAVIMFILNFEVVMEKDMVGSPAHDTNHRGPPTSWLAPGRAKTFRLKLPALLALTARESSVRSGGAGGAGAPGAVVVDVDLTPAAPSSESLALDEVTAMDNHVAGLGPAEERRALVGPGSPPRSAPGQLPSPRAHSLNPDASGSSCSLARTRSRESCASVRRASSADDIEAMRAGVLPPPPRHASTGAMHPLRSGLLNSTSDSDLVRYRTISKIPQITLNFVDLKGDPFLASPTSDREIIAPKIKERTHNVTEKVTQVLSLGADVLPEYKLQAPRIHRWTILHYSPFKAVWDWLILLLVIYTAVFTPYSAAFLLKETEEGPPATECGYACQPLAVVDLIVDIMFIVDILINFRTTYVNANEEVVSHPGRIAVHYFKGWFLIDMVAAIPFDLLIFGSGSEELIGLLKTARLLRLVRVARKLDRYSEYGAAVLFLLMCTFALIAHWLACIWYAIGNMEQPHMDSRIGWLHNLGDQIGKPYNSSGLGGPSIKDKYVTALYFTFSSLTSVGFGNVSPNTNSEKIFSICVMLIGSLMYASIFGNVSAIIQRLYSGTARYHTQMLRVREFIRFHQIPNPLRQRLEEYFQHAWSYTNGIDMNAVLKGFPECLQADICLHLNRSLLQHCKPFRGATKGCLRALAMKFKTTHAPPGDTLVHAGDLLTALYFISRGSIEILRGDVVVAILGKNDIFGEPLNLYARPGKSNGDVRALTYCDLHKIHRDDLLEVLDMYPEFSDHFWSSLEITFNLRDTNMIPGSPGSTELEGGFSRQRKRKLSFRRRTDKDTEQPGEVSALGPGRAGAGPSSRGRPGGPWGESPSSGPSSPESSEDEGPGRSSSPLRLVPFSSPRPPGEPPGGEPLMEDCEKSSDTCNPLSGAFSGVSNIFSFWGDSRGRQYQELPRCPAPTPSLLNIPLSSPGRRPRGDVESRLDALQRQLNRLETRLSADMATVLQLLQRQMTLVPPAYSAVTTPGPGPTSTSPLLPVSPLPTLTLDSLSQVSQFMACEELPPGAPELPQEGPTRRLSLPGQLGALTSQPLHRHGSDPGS

The assay addresses human ether-à-go-go-related gene (hERG) potassium channel (human, UniProt Q12809). Kind of assay: primary screen, population patch clamp on CHO cells stably expressing hERG.
As for `O=C(Nc1ncccn1)C1CCCCC1`, the “hERG current change (%, negative = inhibition) at 1uM” value was 1.38%. The figure for `COC(=O)C1=C(c2ccccc2OCc2ccccc2)C[C@@H]2CC[C@H]1N2C(=O)NCc1cccc(C(F)(F)F)c1` is 11.7%; for `Cc1ccc(NC(=O)CN(C)C(=O)CNC(=O)c2ccc3c(c2)OCO3)cc1` it is 11.7%. On to `Clc1ccc(SCCOCCN2CCCCCC2)cc1.O=C(O)C(=O)O`, for which the “hERG current change (%, negative = inhibition) at 1uM” value is reported as -20.6%. The figure for `COc1ccc(C(=O)NCc2ccccc2)cc1Br` is 15.3%. Next, `OCc1nc2c(ccc3ccccc32)[nH]1`: 4.76%; `CCc1nnc(NC(=O)CSc2nnc(COc3ccc(C#N)cc3)n2-c2ccccc2)s1`: 5.24%; `CCCCN(C(=O)CSc1nnnn1C)C1CCS(=O)(=O)C1` (centres unmarked): -5.57%. In the case of `S=C1NCN(Cc2cccnc2)CN1c1cccc2ccccc12`, the “hERG current change (%, negative = inhibition) at 1uM” value was determined as 10.5%. As for `CC(CN1CCCC1)OC(=O)Cc1ccc(Cl)cc1.Cl` (centres unmarked), the “hERG current change (%, negative = inhibition) at 1uM” value was determined as 14.7%. The figure for `Br.CN(C)C1=NCC(CSC(=N)N)S1` (centres unmarked) is 10.2%; for `O=C(N/N=C/c1ccc[nH]1)c1ccccc1OCc1ccc(F)cc1` it is 6.82%. The figure for `Cc1ccc(S(=O)(=O)/N=C2\C(=O)c3ccccc3C([O-])=C2n2cc[n+](CCC(C)C)c2)cc1` is 4.3%. With `COc1cccc(CNc2ccc(S(N)(=O)=O)cc2)c1OC`, the “hERG current change (%, negative = inhibition) at 1uM” value was found to be 2.06%. With `Cc1ccc(S(=O)(=O)C2(C(=O)Nc3ccc(Br)cc3)CC2)cc1`, the “hERG current change (%, negative = inhibition) at 1uM” value is reported as -1.46%. Next, `COc1ccc(Br)cc1/C=N/NC(=O)c1ccc(COc2ccc3c(c2)CCC3)o1`: 19.2%; `Cc1ccc(C)c(NC(=S)NC(=O)c2cncc(Br)c2)c1`: 9.09%; `COc1cccc(NC(=O)C2CC(=O)n3cnnc3S2)c1` (centres unmarked): 10.4%. On to `N#CC1=C(N)OC2=C(C(=O)CC(c3ccccc3)C2)C1c1ccoc1` (centres unmarked), for which the “hERG current change (%, negative = inhibition) at 1uM” value worked out at 5.48%. For the compound `O=C(NNC(=O)c1cccnc1SCc1cccc([N+](=O)[O-])c1)c1ccc(F)cc1`, the “hERG current change (%, negative = inhibition) at 1uM” value turned out to be 0.193%.

As to `CCOc1ccc(CCNC(=O)COC(=O)COc2ccc(Br)cc2)cc1OCC`, the “hERG current change (%, negative = inhibition) at 1uM” value turned out to be 3.21%. As for `O=C(NCc1ccccn1)C1CCN(S(=O)(=O)c2ccccc2)CC1`, the “hERG current change (%, negative = inhibition) at 1uM” value turned out to be 17%. Consider `O=C(CN(c1ccccc1)S(=O)(=O)c1ccccc1)NCCSc1ccccn1`, for which the “hERG current change (%, negative = inhibition) at 1uM” value is listed as 18.8%. Next, `Cc1ccc(/C=C/C(=O)OCC(=O)N(CC(C)C)c2c(N)n(Cc3ccccc3)c(=O)[nH]c2=O)o1`: 15.4%. Take `COc1ccc(/C=N/Nc2ncc(C(F)(F)F)cc2Cl)c(OC)c1OC`: the “hERG current change (%, negative = inhibition) at 1uM” value turned out to be 7.6%. The figure for `CC1(C)CC(=O)C=C(CN2C(=O)c3ccccc3C2=O)C1=O` is 15.5%. Next, `Cn1cc(CN2CCCC(CO)C2)c(-c2ccc(Oc3ccccc3)cc2)n1` (centres unmarked): 0.915%. In the case of `CCC(C(=O)N1CCOCC1)n1nc(C)n2c(cc3cc(C)ccc32)c1=O` (centres unmarked), the “hERG current change (%, negative = inhibition) at 1uM” value is given as 6.73%. For `CC(C(=O)OCC(=O)Nc1ncc(Cl)cc1Cl)N1C(=O)c2ccccc2C1=O` (centres unmarked), the “hERG current change (%, negative = inhibition) at 1uM” value is 3.54%. Take `CC1CCN(S(=O)(=O)c2ccc3c(c2)oc(=O)n3C)CC1`: the “hERG current change (%, negative = inhibition) at 1uM” value is on record as 20.4%. With `O=C(NC(=S)Nc1ccc(N2CCOCC2)cc1)c1ccco1`, the “hERG current change (%, negative = inhibition) at 1uM” value was 14.5%. Regarding `Cc1cc(-n2cccn2)ccc1CN1CCN(CC(C)C)C(CCO)C1` (centres unmarked), the “hERG current change (%, negative = inhibition) at 1uM” value is recorded as 0.354%. With `CN1CCN(Cc2coc3c(Cl)cc(Cl)cc3c2=O)CC1.O=C(O)C(=O)O`, the “hERG current change (%, negative = inhibition) at 1uM” value stood at 13.6%. Next, `CCN(CC)CCCNc1oc(-c2ccc(OC)c(OC)c2)nc1C#N`: -17.5%.

Take `CCN(CC)S(=O)(=O)c1ccc(C(=O)Nc2cccc(C)c2)cc1`: the “hERG current change (%, negative = inhibition) at 1uM” value is listed as 3.67%. As to `COc1ccc(OC)c(CNC(=O)CCNC(=O)Cn2ccc3ccccc3c2=O)c1`, the “hERG current change (%, negative = inhibition) at 1uM” value amounted to 5.43%. The figure for `O=C(CCC1CCCC1)NCCS(=O)(=O)N1CCN(c2ccccc2)CC1` is 7.89%; for `COCc1nnc(NC(=O)C2CC(=O)N(c3ccc(C)c(Cl)c3)C2)s1` (centres unmarked) it is -0.0041%. The figure for `CCC(C)NC(=S)N1CCN(C(c2ccccc2)c2ccccc2)CC1` (centres unmarked) is -8.79%; for `CCn1c(=NC(=O)CSC(C)=O)sc2cc(OC)ccc21` it is 1.6%. For `CC(C)C(=O)NC(NC(=O)C(C)C)c1ccc([N+](=O)[O-])cc1`, the “hERG current change (%, negative = inhibition) at 1uM” value is given as 5.88%. With `O=C(CNC(=O)c1cccc(Br)c1)N/N=C/c1cccnc1`, the “hERG current change (%, negative = inhibition) at 1uM” value is given as 5.78%. For `O=C(COC(=O)c1cccc(NS(=O)(=O)/C=C/c2ccccc2)c1)Nc1ccccc1OC(F)F`, the “hERG current change (%, negative = inhibition) at 1uM” value stood at 8.11%. For `Cc1ccc(-n2c(SCC(=O)Nc3cc(C)on3)nc3ccccc3c2=O)cc1`, the “hERG current change (%, negative = inhibition) at 1uM” value is 7.51%.

Values taken from publication PMC4336329 (PLoS ONE, 2015).
